# From PubChem BioAssay (Tox21)
# Several values for one entry are separate records, joined by “and”; a condition that tells them apart may be missing. Equal values may be shown once. More than one record can exist for a structure, and the calls need not agree. Activity calls are given as the source filed them. Unless noted, calls come from the whole dose curve; as a rule, active = well fitted curve in the direction sought with a large enough effect in the repeat runs; inconclusive = weak or mixed curves; inactive = no such curve, though single readings can be large; an effect the other way counts as inactive or inconclusive.
# Legend:
# [1] = qHTS assay to identify small molecule antagonists of the thyroid receptor (TR) signaling pathway - cell viability counter screen (AID 743064); details: GH3.TRE-Luc viability, CellTiter-Fluor, 24 h; activity change, negative = cytotoxic: at 70.3 µM (top of the series); note: nearly all actives have a fitted effect of over 50% in size; for activity change, negative = cytotoxic: % is set by controls: 0 for no effect and ±100 for the full control effect
# Summary of the method: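 In-well cytotoxicity read by CellTiter-Fluor (30 min, 37 C) following 23.5 h exposure of GH3 cells bearing a TRE-luciferase sensor. Compounds were added alongside 1 nM (final) T3 to drive TR transactivation.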
# [2] = system: thyroid hormone receptor (rat, GH3 cells); assay: qHTS assay to identify small molecule agonists of the thyroid receptor (TR) signaling pathway (AID 743066; calls by dose curve); details: GH3.TRE-Luc cells, TR agonist luciferase, 24 h; activation: at 83.9 µM (top of the series) unless noted
# [3] = target: Estrogen receptor (Homo sapiens) (UniProt P03372); assay: qHTS assay to identify small molecule agonists of the estrogen receptor alpha (ER-alpha) signaling pathway (AID 743075; calls by dose curve); details: HEK293 ER-alpha-UAS-bla, beta-lactamase FRET ratio, 18 h; activation: at 70.1 µM (top of the series)
# [4] = target: Estrogen receptor (Homo sapiens) (UniProt P03372); assay: qHTS assay to identify small molecule agonists of the estrogen receptor alpha (ER-alpha) signaling pathway using the BG1 cell line (AID 743079); details: BG1Luc4E2 cells, ERE-luciferase agonist, 22 h; activation: at 70.3 µM (top of the series) unless noted; note: nearly all actives have a fitted effect of over 20% in size; for activation: % is set by controls: 0 for no effect and ±100 for the full control effect
# [5] = qHTS assay to identify small molecule antagonists of the estrogen receptor alpha (ER-alpha) signaling pathway using the BG1 cell line - cell viability counter screen (AID 743081);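 note: compound given together with 17beta-estradiol as the ER stimulus; nearly all actives have a fitted effect of over 45% in size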
# [6] = qHTS assay to identify aromatase inhibitors - cell viability counter screen (AID 743084);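 note: cells stimulated with testosterone during compound exposure; nearly all actives have a fitted effect of over 55% in size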
# [7] = target: Peroxisome proliferator-activated receptor gamma (Homo sapiens) (UniProt P37231); assay: qHTS assay to identify small molecule antagonists of the peroxisome proliferator-activated receptor gamma (PPARg) signaling pathway (AID 743191; calls by dose curve; note: nearly all actives have a fitted effect of over 30% in size; for ratio activity, negative = inhibition: % is set by controls: 0 for no effect and ±100 for the full control effect); details: HEK293H PPARg-UAS-bla, beta-lactamase ratio, antagonist, 17 h
# Summary of the method: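 Beta-lactamase reporter under UAS control in HEK293H PPARg-bla cells; compound treatment 17 h at 37C. Read-out: fluorescence intensity after 1 h room-temperature incubation with LiveBLAzer B/G FRET substrate.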
# [8] = qHTS assay to identify small molecule antagonists of the estrogen receptor alpha (ER-alpha) signaling pathway - cell viability counter screen (AID 743074; calls by dose curve; note: nearly all actives have a fitted effect of over 45% in size)
# [9] = qHTS assay to identify small molecule antagonists of the estrogen receptor alpha (ER-alpha) signaling pathway using the BG1 cell line (AID 743080; calls by dose curve;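 note: BG1 cells stimulated with 17beta-estradiol alongside compound; nearly all actives have a fitted effect of over 25% in size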; for activity change, negative = inhibition: % is set by controls: 0 for no effect and ±100 for the full control effect); details: BG1Luc4E2 ERE-luciferase antagonist mode, luminescence; activity change, negative = inhibition: at 70.3 µM (top of the series) unless noted
# Summary of the method: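 BG1-Luc-4E2 cells (endogenous full-length ER-alpha, stable 4×ERE-luciferase) were starved 5 days in phenol-red-free medium with 10% charcoal-stripped FBS, plated 24 h, then given compound plus 17beta-estradiol for 21.5 h at 37 C; ONE-Glo luminescence read after 30 min.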
# [10] = target: Aromatase (Homo sapiens) (UniProt P11511); assay: qHTS assay to identify aromatase inhibitors (AID 743083); note: nearly all actives have a fitted effect of over 55% in size
# [11] = target: Aryl hydrocarbon receptor (Homo sapiens) (UniProt P35869); assay: qHTS assay to identify small molecule that activate the aryl hydrocarbon receptor (AhR) signaling pathway (AID 743085); note: nearly all actives have a fitted effect of over 15% in size
# Summary of the method: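 Luminescence (ONE-Glo) from a dioxin-responsive-element luciferase reporter in HG2L7.5c1 HepG2 cells after 24 hr compound exposure at 37C; viability measured by CellTiter-Fluor fluorescence beforehand.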
# [12] = target: Peroxisome proliferator-activated receptor gamma (Homo sapiens) (UniProt P37231); assay: qHTS assay to identify small molecule agonists of the peroxisome proliferator-activated receptor gamma (PPARg) signaling pathway (AID 743094; active = well fitted activation curve with a large enough effect in the signal ratio in the repeat runs, not every such curve was filed as active; inconclusive = weak or mixed curves, or effect the other way; inactive = no such curve, though single readings can be large or run the other way; the % refers to the signal ratio); details: HEK293H PPARg-UAS-bla, beta-lactamase FRET ratio, 17 h; activation: at 57 µM (top of the series) unless noted
# Summary of the method: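 HEK293H PPARg-bla cells, 5 h settle at 37C/5% CO2; compound (DMSO) 17 h, 37C; B/G FRET substrate 1 h RT; fluorescence intensity read-out. qHTS format.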
# [13] = target: Estrogen receptor (Homo sapiens) (UniProt P03372); assay: qHTS assay to identify small molecule antagonists of the estrogen receptor alpha (ER-alpha) signaling pathway (AID 743069; active = well fitted curve in the direction sought with a large enough effect in the signal ratio in the repeat runs, not every such curve was filed as active; inconclusive = weak or mixed curves, or effect the other way; inactive = no such curve, though single readings can be large or run the other way; the % refers to the signal ratio); details: HEK293 ER-alpha-UAS-bla, beta-lactamase ratio, antagonist mode; activity, negative = inhibition: at 69.4 µM (top of the series)
# Summary of the method: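 Fluorescence intensity from a beta-lactamase FRET substrate served as the read-out. Cells: HEK293 with stably integrated ER-alpha-UAS-bla reporter. Agonist 17beta-estradiol was co-added with compounds; incubation 18 hr at 37C, substrate 2 hr at room temperature.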
# [14] = qHTS assay to identify small molecule that activate the aryl hydrocarbon receptor (AhR) signaling pathway - cell viability counter screen (AID 743086); note: nearly all actives have a fitted effect of over 45% in size
# Summary of the method: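 Cytotoxicity counter screen: CellTiter-Fluor signal (30 min, 37 C) in 4000 HepG2 cells/well carrying the DRE-luciferase reporter, following 24 h compound exposure at 37 C.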
# [15] = qHTS assay to identify small molecule antagonists of the thyroid receptor (TR) signaling pathway (AID 743065); note: nearly all actives have a fitted effect of over 55% in size
# Summary of the method: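 Antagonism measured as loss of luciferase signal in GH3 cells stably carrying a TRE-luciferase reporter, co-treated with compound and T3 (1 nM final) for 23.5 h at 37 C. Viability was read in the same well by CellTiter-Fluor.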
# [16] = ratio activity, negative = inhibition: at 62.6 µM (top of the series) unless noted
# Potency is the fitted concentration of half-maximal effect; tags give direction and shape of the fitted curve or compound fluorescence and quenching.
# Sequence of UniProt P11511 (P11511 whole entry, looked up): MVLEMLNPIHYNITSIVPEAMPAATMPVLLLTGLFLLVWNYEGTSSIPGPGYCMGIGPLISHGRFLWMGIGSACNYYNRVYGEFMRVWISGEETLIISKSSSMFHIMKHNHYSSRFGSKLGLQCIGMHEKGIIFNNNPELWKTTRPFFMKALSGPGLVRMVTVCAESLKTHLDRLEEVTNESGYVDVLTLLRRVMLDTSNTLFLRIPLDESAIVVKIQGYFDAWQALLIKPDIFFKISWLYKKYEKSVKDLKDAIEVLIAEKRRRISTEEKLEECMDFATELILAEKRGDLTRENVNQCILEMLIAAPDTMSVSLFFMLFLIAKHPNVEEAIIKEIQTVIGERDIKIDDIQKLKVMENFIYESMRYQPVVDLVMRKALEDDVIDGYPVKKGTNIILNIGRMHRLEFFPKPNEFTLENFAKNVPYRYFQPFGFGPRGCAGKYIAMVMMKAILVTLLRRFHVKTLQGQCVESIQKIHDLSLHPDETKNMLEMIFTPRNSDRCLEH
# Sequence of UniProt P03372 (P03372 whole entry, looked up): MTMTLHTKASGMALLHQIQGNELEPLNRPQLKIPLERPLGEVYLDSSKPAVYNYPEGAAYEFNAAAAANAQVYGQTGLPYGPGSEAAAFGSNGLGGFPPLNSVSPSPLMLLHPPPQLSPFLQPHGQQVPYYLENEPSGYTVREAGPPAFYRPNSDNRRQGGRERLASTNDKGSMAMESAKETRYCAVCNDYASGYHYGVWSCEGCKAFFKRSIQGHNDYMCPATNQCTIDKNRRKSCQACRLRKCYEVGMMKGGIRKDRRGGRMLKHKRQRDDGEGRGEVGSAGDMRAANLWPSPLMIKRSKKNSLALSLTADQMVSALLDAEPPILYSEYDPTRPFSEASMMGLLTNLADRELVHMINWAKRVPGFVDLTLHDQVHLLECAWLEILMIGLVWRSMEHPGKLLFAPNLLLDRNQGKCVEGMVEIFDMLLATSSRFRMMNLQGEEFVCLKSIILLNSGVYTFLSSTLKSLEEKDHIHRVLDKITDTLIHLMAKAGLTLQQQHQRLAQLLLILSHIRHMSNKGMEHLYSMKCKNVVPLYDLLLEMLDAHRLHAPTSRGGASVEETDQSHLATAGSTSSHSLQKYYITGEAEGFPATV
# Sequence of UniProt P37231 (P37231 whole entry, looked up): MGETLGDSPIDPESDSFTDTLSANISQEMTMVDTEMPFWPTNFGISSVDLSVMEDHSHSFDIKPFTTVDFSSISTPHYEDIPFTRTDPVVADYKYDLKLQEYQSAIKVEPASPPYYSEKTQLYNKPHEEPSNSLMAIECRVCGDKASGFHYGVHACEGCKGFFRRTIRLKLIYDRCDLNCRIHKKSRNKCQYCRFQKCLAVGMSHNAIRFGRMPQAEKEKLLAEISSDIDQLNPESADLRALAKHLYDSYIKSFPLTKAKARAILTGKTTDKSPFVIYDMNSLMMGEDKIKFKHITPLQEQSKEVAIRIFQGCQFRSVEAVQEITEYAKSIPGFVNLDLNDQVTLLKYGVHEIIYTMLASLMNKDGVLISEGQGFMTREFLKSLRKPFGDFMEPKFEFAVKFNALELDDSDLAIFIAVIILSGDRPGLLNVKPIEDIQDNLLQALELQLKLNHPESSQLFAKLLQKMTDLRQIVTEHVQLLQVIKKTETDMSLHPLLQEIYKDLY
# Sequence of UniProt P35869 (P35869 whole entry, looked up): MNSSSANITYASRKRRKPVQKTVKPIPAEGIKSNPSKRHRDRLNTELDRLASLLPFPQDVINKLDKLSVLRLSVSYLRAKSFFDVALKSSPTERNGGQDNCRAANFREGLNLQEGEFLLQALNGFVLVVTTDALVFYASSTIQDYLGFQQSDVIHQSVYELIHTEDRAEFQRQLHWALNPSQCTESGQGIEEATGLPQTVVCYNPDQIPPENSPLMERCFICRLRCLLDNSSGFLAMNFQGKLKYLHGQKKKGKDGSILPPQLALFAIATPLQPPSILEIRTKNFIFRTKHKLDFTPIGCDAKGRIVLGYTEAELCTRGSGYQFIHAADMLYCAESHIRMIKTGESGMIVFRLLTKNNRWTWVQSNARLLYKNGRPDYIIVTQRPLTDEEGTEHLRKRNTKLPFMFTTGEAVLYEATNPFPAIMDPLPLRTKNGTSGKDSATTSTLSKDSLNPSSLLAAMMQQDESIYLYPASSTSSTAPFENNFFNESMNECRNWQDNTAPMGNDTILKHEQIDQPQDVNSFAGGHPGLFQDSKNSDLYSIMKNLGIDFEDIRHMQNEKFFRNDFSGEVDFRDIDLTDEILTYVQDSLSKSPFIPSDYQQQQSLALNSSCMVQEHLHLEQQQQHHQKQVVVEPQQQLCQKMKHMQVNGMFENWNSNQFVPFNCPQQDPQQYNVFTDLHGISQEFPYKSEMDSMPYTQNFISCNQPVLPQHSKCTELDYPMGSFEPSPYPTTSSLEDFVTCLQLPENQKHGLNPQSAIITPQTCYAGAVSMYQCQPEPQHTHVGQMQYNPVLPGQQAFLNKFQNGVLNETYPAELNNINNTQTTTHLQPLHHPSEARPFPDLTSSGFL
compound,measurement,setting,value
Clc1ccc(C(c2ccc(Cl)cc2)C(Cl)Cl)cc1,Potency,[1],active: 24.7 µM and active: 68.6 µM
same,Potency,[2],"inconclusive: 19.3 µM [inhibitor, partial curve, poor fit]"
same,Potency,[3],"inconclusive: 62.7 µM [falling, single point]"
same,Potency,[4],"inconclusive: 69.7 µM [inhibitor, single point]"
same,activation,[4],inconclusive: -9.81% [phenotype inactive]
same,Potency,[5],"inconclusive: 77 µM [cytotoxic, partial curve, poor fit]"
same,Potency,[6],"inconclusive: 69.7 µM [cytotoxic, single point]"
same,Potency,[7]; [16],inconclusive: 61.6 µM [cytotoxic]
COP(=S)(OC)Oc1ccc([N+](=O)[O-])cc1,Potency,[1],inactive
same,Potency,[8],"inconclusive: 21.9 µM [cytotoxic, single point] and inactive"
same,Potency,[3],inconclusive: 55 µM [activator]
same,Potency,[4],active: 48.6 µM and inactive
same,Potency,[9],inactive
same,Potency,[10],"inconclusive: 34.4 µM [inhibitor, partial curve, poor fit]"
same,Potency,[11],"inconclusive: 61.1 µM [activator, partial curve]"
same,Potency,[7]; [16],"inconclusive: 54.9 µM [inhibitor, single point]"
same,"ratio activity, negative = inhibition",[7]; [16],inconclusive: -18.6%
Clc1nc(Cl)nc(Cl)n1,Potency,[1],inconclusive: 68.6 µM [cytotoxic]
same,Potency,[8],"inconclusive: 0.121 µM [rising, full curve, poor fit]"
same,Potency,[3],"inconclusive: 0.429 µM [falling, full curve]"
same,activation,[4],inconclusive: 8.13% [phenotype inactive] and inconclusive: 7.28% [phenotype inactive]
same,Potency,[6],"inconclusive: 21.7 µM [cytotoxic, partial curve, poor fit]"
same,activation,[12],inconclusive: -1.09%
CCOC(=O)[C@]1(c2ccccc2)Oc2ccccc2[C@@H]1N,Potency,[1],active: 68.6 µM
same,Potency,[2],"inconclusive: 54.5 µM [inhibitor, partial curve, poor fit]"
same,Potency,[8],"inconclusive: 17.4 µM [cytotoxic, partial curve, poor fit]"
same,Potency,[5],"inconclusive: 0.0273 µM [rising, full curve, poor fit]"
same,activation,[12],inconclusive: -5.68%
Cc1ccccc1[N+](=O)[O-],Potency,[1],inactive
same,Potency,[13],inactive
same,Potency,[3],"inconclusive: 2.49 µM [falling, full curve]"
same,activation,[4],inconclusive: -3.72% [phenotype inactive] [at 95 µM]
same,"activity change, negative = inhibition",[9],inconclusive: 1.18% [at 95 µM]
O=c1oc2ccccc2c(O)c1C(CC(O)c1ccc(-c2ccc(Br)cc2)cc1)c1ccccc1 (configuration not stated),Potency,[1],"inconclusive: 26.6 µM [cytotoxic, single point] and inconclusive: 64.9 µM [cytotoxic, single point]"
same,activation,[2],inconclusive: -8.65% [phenotype inactive]
same,Potency,[13],"inconclusive: 3.79 µM [fluorescent, full curve] and inconclusive: 7.34 µM [fluorescent, full curve]"
same,Potency,[8],"inconclusive: 19 µM [cytotoxic, partial curve]"
same,Potency,[12],active: 601 nM and active: 1.04 µM
O=C1C(I)=CC(=C(c2cc(I)c(O)c(I)c2)c2ccccc2C(=O)O)C=C1I,Potency,[1],"inconclusive: 33.5 µM [cytotoxic, single point]"
same,Potency,[2],"inconclusive: 15 µM [inhibitor, partial curve, poor fit]"
same,Potency,[13],inconclusive: 9.52 µM [full curve] and active: 7.56 µM [inconclusive]
same,Potency,[8],"inconclusive: 30.1 µM [cytotoxic, single point]"
same,activation,[12],inconclusive: -0.831% and inconclusive: -9.04%
same,Potency,[7]; [16],"inconclusive: 10.6 µM [rising, full curve]"
FC(F)C(F)(F)OCC(Cn1cncn1)c1ccc(Cl)cc1Cl (configuration not stated),Potency,[1],"inconclusive: 68.2 µM [cytotoxic, single point]"
same,activation,[2],inconclusive: -8.82% [phenotype inactive]
same,Potency,[8],"inconclusive: 61.3 µM [cytotoxic, single point]"
same,Potency,[6],"inconclusive: 68.2 µM [cytotoxic, single point]"
same,Potency,[14],"inconclusive: 60.8 µM [falling, single point]"
same,Potency,[12],inconclusive: 54.6 µM
same,"ratio activity, negative = inhibition",[7]; [16],inconclusive: -22.3%
Cc1cc(OC(=O)N(C)C)nn1C(=O)N(C)C,Potency,[1],inactive
same,Potency,[2],inactive
same,Potency,[8],"inconclusive: 21.9 µM [rising, single point]"
same,"ratio activity, negative = inhibition",[7]; [16],inconclusive: -1.08%
Clc1ccc(C(c2ccc(Cl)cc2)C(Cl)(Cl)Cl)cc1,Potency,[1],active: 18.8 µM and active: 30.9 µM and active: 30.6 µM
same,Potency,[2],"inconclusive: 15.4 µM [inhibitor, partial curve, poor fit]"
same,activation,[2],inconclusive: -8.59% [phenotype inactive]
same,Potency,[8],"inconclusive: 62.1 µM [cytotoxic, partial curve, poor fit] and inconclusive: 49 µM [cytotoxic, partial curve, poor fit]"
same,Potency,[6],"inconclusive: 30.9 µM [rising, partial curve, poor fit]"
same,Potency,[12],inconclusive: 54.9 µM [single point]
same,activation,[12],inconclusive: 37.9% [at 78.9 µM]
same,"ratio activity, negative = inhibition",[7]; at 62.6 µM (top of the series),inconclusive: 1.66%
same,"ratio activity, negative = inhibition",[7]; at 81.1 µM (top of the series),inconclusive: -9.09%
CN(C)CCc1c[nH]c2ccc(O)cc12,Potency,[1],inactive
same,Potency,[8],"inconclusive: 19 µM [rising, partial curve, poor fit]"
Brc1ccc(Oc2cc(Br)c(Br)cc2Br)c(Br)c1,Potency,[1],"inconclusive: 27.3 µM [rising, single point]"
same,Potency,[13],"inconclusive: 55.4 µM [fluorescent, partial curve, poor fit]"
same,Potency,[4],active: 61.6 µM
same,Potency,[6],inactive
same,Potency,[12],"inconclusive: 62.1 µM [rising, partial curve, poor fit]"
same,"ratio activity, negative = inhibition",[7]; at 62.6 µM (top of the series),inconclusive: 5.23%
same,"ratio activity, negative = inhibition",[7]; at 81.1 µM (top of the series),inconclusive: -34.4%
O=C(Nc1ccc(Br)cc1)c1cc(Br)cc(Br)c1O,Potency,[1],active: 16.8 µM and active: 5.43 µM and active: 4.33 µM
same,Potency,[2],"inconclusive: 2.73 µM [inhibitor, partial curve, poor fit]"
same,activation,[2],inconclusive: -8.21% [phenotype inactive]
same,Potency,[8],active: 6.01 µM and active: 4.35 µM and active: 2.19 µM
same,Potency,[4],"inconclusive: 10.6 µM [inhibitor] and inconclusive: 6.09 µM [inhibitor, full curve] and inconclusive: 6.86 µM [inhibitor, full curve]"
same,Potency,[5],"inconclusive: 13.6 µM [cytotoxic, full curve] and inconclusive: 8.63 µM [cytotoxic, full curve]"
same,Potency,[10],"inconclusive: 76.6 µM [inhibitor, single point] and active: 13.7 µM"
same,Potency,[6],"inconclusive: 60.9 µM [cytotoxic, single point] and inconclusive: 12.2 µM [cytotoxic, full curve]"
C=CCC1=C(C)C(OC(=O)C2C(C=C(C)C)C2(C)C)CC1=O (configuration not stated),Potency,[1],active: 49.3 µM
same,Potency,[13],active: 58.3 µM [fluorescent]
same,Potency,[8],active: 46.3 µM
same,Potency,[4],"inconclusive: 37 µM [inhibitor, partial curve]"
same,Potency,[9],active: 36.4 µM
same,Potency,[5],"inconclusive: 30.6 µM [cytotoxic, partial curve, poor fit]"
same,Potency,[14],"inconclusive: 25.8 µM [falling, partial curve, poor fit]"
same,Potency,[12],"inconclusive: 8.23 µM [rising, full curve, poor fit]"
same,Potency,[7]; [16],inconclusive: 46.3 µM [partial curve]
CC(c1ccc(O)cc1)(c1ccc(O)cc1)c1ccc(O)cc1,Potency,[1],"inconclusive: 68.6 µM [cytotoxic, single point]"
same,activation,[2],inconclusive: -9.96% [phenotype inactive]
same,Potency,[13],active: 21.9 µM [inconclusive]
same,Potency,[8],"inconclusive: 49 µM [rising, single point]"
same,Potency,[3],"inconclusive: 30.9 µM [falling, partial curve]"
same,Potency,[4],active: 27.3 µM
same,Potency,[9],"inconclusive: 27.3 µM [rising, partial curve]"
same,Potency,[10],"inconclusive: 68.6 µM [inhibitor, single point]"
same,Potency,[14],"inconclusive: 68.6 µM [falling, single point]"
same,Potency,[7]; [16],active: 21.9 µM
C=CCN1C[C@H](C)N([C@H](c2ccc(C(=O)N(CC)CC)cc2)c2cccc(OC)c2)C[C@H]1C,Potency,[1],"inconclusive: 26.6 µM [cytotoxic, partial curve]"
same,Potency,[15],"inconclusive: 33.5 µM [inhibitor, single point]"
same,activation,[12],inconclusive: -13.3%
N#Cc1cccc(C#N)c1,Potency,[1],"inconclusive: 8.63 µM [rising, partial curve]"
same,Potency,[8],"inconclusive: 0.764 µM [cytotoxic, full curve, poor fit]"
Cl[C@H]1OCCO[C@@H]1Cl,Potency,[1],"inconclusive: 0.433 µM [rising, full curve, poor fit]"
same,Potency,[8],"inactive and inconclusive: 1.55 µM [cytotoxic, partial curve, poor fit]"
